“And” between values parts separate entries of the source, which are not always exact repeats. Equal values may be shown once.
Tests used:
[1] = test system: AK4.4 pancreatic tumors; assay: Pancreatic tumor growth and survival; type: in vivo, mice; details: for tumor growth rate: monotherapy (losartan 40 mg/kg daily or 5-FU 60 mg/kg)
Procedure: Statistical tests were corrected for multiple comparisons using the Holm-Bonferroni method.
(§1) The mice were then treated with either 60 mg/kg 5-FU or an equal volume of saline by intravenous injection on days 9 and 13 after implantation. Tumors were extracted on day 14 for measurement using calipers. Tumor growth was quantified using the size at day 14. […] Metastatic burden was assessed at death.

[2] = test system: AK4.4 pancreatic tumors; assay: Tumor matrix level histology (collagen I); set-up: species or system FVB mouse; details: mouse, in vivo
Procedure: Collagen levels were used as a metric of matrix production as described in Diop-Frimpong et al., Proc Nall Acad Sci USA. […] Next, solid stress in these tumors was measured using recently established technique described in Stylianopoulos T, et al., Growth-induced mechanical stress in murine and human tumors: causes, consequences and remedies. under review.
Vessel perfusion, matrix level, and hypoxia histology: For breast tumors, mice bearing orthotopic E0771 were split into treatment groups, time-matched for time after implantation and size-matched for tumor volume at this time (−100 mm^3). For pancreatic tumors, mice bearing orthotopic AK4.4 were split into treatment groups, size-matched for tumor volume (˜22 mm^3), 6 days after implantation. […] On the day of the last treatment, mice were slowly (−2 min) injected with 100 μL of 1 mg/mL biotinylated lectin (Vector Labs), administered retro-orbitally 5 min prior to tumor removal. For hypoxia studies, the mice were also injected with 60 mg/kg of 10 mg/mL pimonidazole 1 hr prior to tumor removal. […] For matrix staining, collagen I was detected using the LF-67 antibody provided by Dr. Larry Fisher (National Institute of Dental Research, Bethesda, Md.).
Histological image analysis: Eight random images (four interior, four periphery) at 20× magnification were taken from each slide using a confocal microscope (Olympus). […] For perfusion, the number of vessels counted by this program with colocalization of lectin and CD31 staining was divided by the number of vessels counted with CD31 staining. For vessel metrics, including diameter and density, the program determined the average size of all counted vessels and their length, as well as the count per area Images of collagen I stained sections were analyzed based on the area fraction of positive staining and on the average staining intensity (concentration) in each image. […] Images of hypoxia staining with pimonidazole were similarly analyzed for the area fraction of positive staining, counting the fraction of pixels above a threshold based on background intensity.

[3] = test system: AK4.4 pancreatic tumors; assay: Collagen I immunofluorescence quantitative image analysis; type: in vivo, mice; details: for average percentage of collagen I positive area: PBS 16.26±1.72%; for percentage of collagen I positive area, representative image: PBS 22.356%; for average number of collagen I positive fibers per image: PBS 28.04±2.41
Procedure: Collection instruction: For PK/PD analysis, blood samples from euthanized mice were collected into lithium heparin tubes and inverted until centrifuged for 5 minutes in 4° C. at 6,000 rpm. Weighed tumors were homogenized with PBS. For immunohistochemistry analysis of collagen I, tumors were collected and sliced into two pieces. Both pieces were placed in 4% formaldehyde for up to 6 hours (0.5 hour per 1 mm) then rinsed three times with PBS. The tumor samples were stored in 30% sucrose for 24 hours and then frozen in 30×24 mm molds with optimum cutting temperature compound (OCT). The tumor samples were then stored in tissue cassettes at −80° C.
In Group 1, the mice were subcutaneously injected with saline as a control. In Group 2, losartan was administered to the mice via subcutaneous pump. In Group 3, losartan was administered to the mice via subcutaneous injections in the absence of pump.
Immunohistochemistry for collagen I was performed as described in the experimental protocols for Examples 11.
To quantify the positively stained area for collagen I and to identify the number of collagen I positive fibers, each collagen fiber was outlined and each collagen area was calculated from the collagen I positive area/total area. The average collagen I area and number of collagen I positive fibers were calculated by averaging the total ten fields from each tumor sample.

[4] = test system: AK4.4 pancreatic tumors; assay: Small-molecule drug (5-FU) delivery to tumors and organs; type: in vivo, mice; details: losartan 40 mg/kg i.p. daily 7 days
Procedure: The accumulation of the small-molecule chemotherapeutic fluorouracil (5-FU) was then measured. Losartan improved 5-FU delivery to AK4.4 tumors, while not affecting delivery to normal organs (FIG. 29A).
Drug delivery: Mice bearing orthotopic AK4.4 were split into treatment groups, size-matched for tumor volume (−22 mm^3), 6 days after implantation. The mice were then treated with 40 mg/kg losartan or an equal volume of PBS intraperitoneally each day for 7 days. On the day of the last treatment, mice were injected with 100 mg/kg 5-FU, administered retro-orbitally 30 min prior to tumor and organ removal. The tissue was dabbed of excess blood then snap-frozen in liquid nitrogen for analysis. 5-FU was isolated from the tissues and measured using liquid-liquid extraction followed by reverse-phase high-performance liquid chromatography with tandem mass-spectrometry.

[5] = test system: E0771 breast tumors; assay: Vessel perfusion histology (lectin / CD31); type: in vivo, SCID mouse; details: 40 mg/kg i.p. daily, 6 days; control 23%
[6] = test system: AK4.4 pancreatic tumors; assay: Vessel perfusion histology (lectin / CD31); details: 40 mg/kg
[7] = test system: AK4.4 pancreatic tumors; assay: Tumor volume measurement, pump vs pulsatile losartan; type: in vivo, male FVB mice; details: for Average volume (Day 7): baseline
Text: On day 7 the tumors were all measured, and then the mice were randomized into one group of sixteen mice for subcutaneous injection of PBS as a control (Group 1), one group of twenty-two mice for subcutaneous pump administration of losartan (Group 2), and one group of twenty-two mice for subcutaneous injection of losartan in the absence of pump. Subcutaneous pumps with losartan were implanted on day 7 into the twenty-two mice in Group 2. All of the mice in Group 1 were subcutaneously dosed with PBS daily until day 14 or day 19. All of the mice in Groups 2 and 3 were dosed with losartan at 40 mg/kg daily until day 14 or day 19. Blood and tumor samples were collected either 2 hours or 6 hours post injection. The body weight was measured for all mice every other weekday (i.e., every Monday, Wednesday, and Friday) until the final dose on day 14 or 19. For PK/PD analysis, six mice in each group (three mice per time point in Groups 2 and 3) were euthanized on day 14 and day 19. Blood samples were collected and tumor weight was measured. To perform collagen I immunohistochemistry, the tumors of ten mice were collected following the measurement of the tumor volume.
The volumes of the tumors collected from the mice in Group 1 (subcutaneous injections of PBS as a control), Group 2 (subcutaneous pump administration of losartan at 40 mg/kg), and Group 3 (subcutaneous injections of losartan without pump at 40 mg/kg) were measured on day 19. The baseline tumor volumes were measured on day 7.

[8] = test system: AK4.4 pancreatic tumors; assay: Metastasis study: disease dissemination at death; type: in vivo, mice
Procedure: as §1

[9] = Group 2: losartan via subcutaneous pump
[10] = Group 3: losartan subcutaneous injection without pump
[11] = losartan in combination with 5-FU
[12] = Group 2: subcutaneous pump 40 mg/kg
[13] = Group 3: subcutaneous injections without pump 40 mg/kg

O=c1[nH]cc(F)c(=O)[nH]1 [5-FU, fluorouracil]
tumor growth rate [1]: no significant effect

NCCCC[C@H](N[C@@H](CCc1ccccc1)C(=O)O)C(=O)N1CCC[C@H]1C(=O)O [lisinopril]
matrix production, collagen I area fraction [2]: decreases

CCCCc1nc(Cl)c(CO)n1Cc1ccc(-c2ccccc2-c2nn[nH]n2)cc1 [losartan]
average percentage of collagen I positive area [3, 9]: 3.24±0.48% and 3.24%
percentage of collagen I positive area, representative image [3, 9]: 4.453%
average number of collagen I positive fibers per image [3, 9]: 10.01±1.28 and 10.01
average percentage of collagen I positive area [3, 10]: 8.71±0.65% and 8.71%
percentage of collagen I positive area, representative image [3, 10]: 11.34%
average number of collagen I positive fibers per image [3, 10]: 17.93±1.14 and 17.93
survival ([1]; losartan alone): did not shorten survival
tumor growth [1, 11]: greatly slowed tumor growth
tumor growth rate [1]: no significant effect
accumulation of 5-FU in the normal organs [4]: not affecting
increase in accumulation of 5-FU in tumors ([4]; 5-FU 100 mg/kg 30 min before removal): 74%
concentration of collagen I (staining intensity) [2]: reduces
matrix production, collagen I area fraction [2]: decreases
perfused vessel fraction [5]: 43%
CD31+ vessel density [6]: did not affect
increase of average tumor volume from day 7 to day 19 ([7]; Group 2 (subcutaneous pump)): 21 fold
average tumor volume smaller than that of Group 1 and Group 3 ([7]; Group 2 (subcutaneous pump), day 19): about 27%
Average volume (Day 19) [7, 12]: 235.98 mm^3
Average volume (Day 7) [7, 12]: 11.17 mm^3
increase of average tumor volume from day 7 to day 19 ([7]; Group 3 (subcutaneous injections without pump)): more than 30 fold
Average volume (Day 19) [7, 13]: 323.13 mm^3
Average volume (Day 7) [7, 13]: 10.33 mm^3
incidence and size of metastases [8, 11]: appeared to reduce the incidence and size of metastases
metastasis ([8]; losartan monotherapy): did not increase metastasis

Reference: patent US20130287688A1, “NOVEL COMPOSITIONS AND USES OF ANTI-HYPERTENSION AGENTS FOR CANCER THERAPY” (XTUIT PHARMACEUTICALS, INC., priority 2010, published 2013)
